Assay results reported in the supplement of paper PMC12067230.
This is a noisy data set.

Experiment: amyloid nucleation score relative to library mode (yeast Sup35 reporter selection) (log enrichment difference); higher = more amyloid nucleation; sequences are the first 22 residues of the Bri2 peptide extended by up to 12 random residues
Details: random library (experiment): 1;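 active = nucleation score significantly above 0 at FDR 0.05; inactive = not significantly above 0 or absent from output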
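Note: [psi-pin-] Saccharomyces cerevisiae expressing SupN fusions, induced by 100 µM Cu2SO4, selected 7 d at 30 °C without adenine and uracil, scored by deep sequencing of output versus input.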

Sequence	amyloid nucleation score
EASNCFAIRHFENKFAVETLICGDTVRRATRCCI	0.645
EASNCFAIRHFENKFAVETLICGDV	inactive
EASNCFAIRHFENKFAVETLICGDVWCTCVGVLG	6.38
EASNCFAIRHFENKFAVETLICGDWTDLFRGVPV	inactive
EASNCFAIRHFENKFAVETLICGDY	inactive
EASNCFAIRHFENKFAVETLICGE	inactive
EASNCFAIRHFENKFAVETLICGEALRVRRVRAA	inactive
EASNCFAIRHFENKFAVETLICGEAWPTRTHRPW	inactive
EASNCFAIRHFENKFAVETLICGEGFAYKWGWDG	inactive
EASNCFAIRHFENKFAVETLICGEGTSFGGCGGR	inactive
EASNCFAIRHFENKFAVETLICGEHMNSGMMLEG	inactive
EASNCFAIRHFENKFAVETLICGELYFGRRCISL	inactive
EASNCFAIRHFENKFAVETLICGEMLNWRSYVPW	4.43
EASNCFAIRHFENKFAVETLICGEMRYARQRGP	0.00985
EASNCFAIRHFENKFAVETLICGEN	-0.179
EASNCFAIRHFENKFAVETLICGEQLRCVVLPVR	inactive
EASNCFAIRHFENKFAVETLICGEQWDVVTLGPG	1.34
EASNCFAIRHFENKFAVETLICGERKMVIRECPN	inactive
EASNCFAIRHFENKFAVETLICGERLTMWQCWWL	inactive
EASNCFAIRHFENKFAVETLICGESCSDSEGYDR	inactive
EASNCFAIRHFENKFAVETLICGESVTERRNAEL	inactive
EASNCFAIRHFENKFAVETLICGETVNQVLCEAR	inactive
EASNCFAIRHFENKFAVETLICGEVCEPRYSEAS	inactive
EASNCFAIRHFENKFAVETLICGEVGKERAVESG	inactive
EASNCFAIRHFENKFAVETLICGEWVVTGWCLVQ	-0.25
EASNCFAIRHFENKFAVETLICGF	-0.412

Sequence	amyloid nucleation score
EASNCFAIRHFENKFAVETLICGFANVVCGLRTV	4.46
EASNCFAIRHFENKFAVETLICGFARSRVVACTS	inactive
EASNCFAIRHFENKFAVETLICGFAVTCLARGGA	0.856
EASNCFAIRHFENKFAVETLICGFEAVAG	inactive
EASNCFAIRHFENKFAVETLICGFGMSSAGHVSA	inactive
EASNCFAIRHFENKFAVETLICGFGPSERAARRL	1.34
EASNCFAIRHFENKFAVETLICGFLQKPRVIAVA	inactive
EASNCFAIRHFENKFAVETLICGFNGESRSPVRG	inactive
EASNCFAIRHFENKFAVETLICGFNTRIILTYVS	-0.12
EASNCFAIRHFENKFAVETLICGFQIAD	inactive
EASNCFAIRHFENKFAVETLICGFSGFGG	3.63
EASNCFAIRHFENKFAVETLICGFSVSIHVISQS	2.9
EASNCFAIRHFENKFAVETLICGFTSQKQLGRAG	inactive
EASNCFAIRHFENKFAVETLICGFVHSCLTLCWG	inactive
EASNCFAIRHFENKFAVETLICGGDENCRRWAAW	inactive
EASNCFAIRHFENKFAVETLICGGDGAVVKGDRP	inactive
EASNCFAIRHFENKFAVETLICGGDLEGHVKPFV	0.606
EASNCFAIRHFENKFAVETLICGGFLRYAVSRC	2.76
EASNCFAIRHFENKFAVETLICGGGEALAAGKLV	inactive
EASNCFAIRHFENKFAVETLICGGGLTQAGEANV	inactive
EASNCFAIRHFENKFAVETLICGGKKRCLTVRSV	inactive
EASNCFAIRHFENKFAVETLICGGL	inactive
EASNCFAIRHFENKFAVETLICGGLMHCDGITCS	-0.0755
EASNCFAIRHFENKFAVETLICGGLSMLMGPLAR	inactive
EASNCFAIRHFENKFAVETLICGGLSRQSSAWGS	inactive

Same assay, conditions: random library (experiment): 2

Sequence	amyloid nucleation score
EASNCFAIRHFENKFAVETLICGDSYLMYMALTI	inactive
EASNCFAIRHFENKFAVETLICGDWSFHIYWCGV	inactive
EASNCFAIRHFENKFAVETLICGEGEREREAGGV	0.683
EASNCFAIRHFENKFAVETLICGFGFWWCWSRLC	3.04
EASNCFAIRHFENKFAVETLICGFGHVASKHWFA	2.39
EASNCFAIRHFENKFAVETLICGFGNRV	6.85
EASNCFAIRHFENKFAVETLICGFGTSR	3.89
EASNCFAIRHFENKFAVETLICGFICWLPVIGRV	inactive
EASNCFAIRHFENKFAVETLICGFIIRVASACVG	inactive
EASNCFAIRHFENKFAVETLICGFIWLFHITCYV	inactive
EASNCFAIRHFENKFAVETLICGFKVYSYTCLQS	5.37
EASNCFAIRHFENKFAVETLICGFLFGSLREQ	3.22
EASNCFAIRHFENKFAVETLICGFLYGSVSNVGW	inactive
EASNCFAIRHFENKFAVETLICGFN	inactive
EASNCFAIRHFENKFAVETLICGFRKLR	inactive
EASNCFAIRHFENKFAVETLICGFSMCVH	6.54
EASNCFAIRHFENKFAVETLICGFSQWFESGHYL	5.59
EASNCFAIRHFENKFAVETLICGFSYIWLKSSSS	inactive
EASNCFAIRHFENKFAVETLICGFTMTRQVNGRR	4.34
EASNCFAIRHFENKFAVETLICGFVFNEVYGRVV	3.2
EASNCFAIRHFENKFAVETLICGFVLGMRNIGLC	inactive
EASNCFAIRHFENKFAVETLICGFVSRYITYQCS	inactive
EASNCFAIRHFENKFAVETLICGGAWRMAVRERA	3.1
EASNCFAIRHFENKFAVETLICGGEAI	-0.148
EASNCFAIRHFENKFAVETLICGGLC	4.92

Same assay, conditions: random library (experiment): 3

Sequence	amyloid nucleation score
EASNCFAIRHFENKFAVETLICGDWTQTRSRSLG	inactive
EASNCFAIRHFENKFAVETLICGEECWLTRRRRV	inactive
EASNCFAIRHFENKFAVETLICGEEIRLAKRPGN	3.03
EASNCFAIRHFENKFAVETLICGEELRAKKVQLV	inactive
EASNCFAIRHFENKFAVETLICGEFGSGSLMAGG	inactive
EASNCFAIRHFENKFAVETLICGEGYPKSECPGG	inactive
EASNCFAIRHFENKFAVETLICGEIWAFMGRVLW	inactive
EASNCFAIRHFENKFAVETLICGEKDNAFVICIS	inactive
EASNCFAIRHFENKFAVETLICGEPDRMTPRVAK	inactive
EASNCFAIRHFENKFAVETLICGEQRLRKRGTVS	inactive
EASNCFAIRHFENKFAVETLICGEQVGQRHRYAQ	inactive
EASNCFAIRHFENKFAVETLICGERASLRRVHTS	inactive
EASNCFAIRHFENKFAVETLICGESVSWCCMLSD	2.29
EASNCFAIRHFENKFAVETLICGEVAVTCWHRLG	inactive
EASNCFAIRHFENKFAVETLICGEVGPAYRCMVG	inactive
EASNCFAIRHFENKFAVETLICGEVHPWDGGPCR	inactive
EASNCFAIRHFENKFAVETLICGEVSNILCSFEM	3.83
EASNCFAIRHFENKFAVETLICGFASDNMVCSLW	7.42
EASNCFAIRHFENKFAVETLICGFCASSYRLIRW	5.04
EASNCFAIRHFENKFAVETLICGFGRVKWSVEGR	4.76
EASNCFAIRHFENKFAVETLICGFIGDWVFRSW	5.62

Sequence	amyloid nucleation score
EASNCFAIRHFENKFAVETLICGFSADKSFSFSE	inactive
EASNCFAIRHFENKFAVETLICGFSSRFIPLDGS	inactive
EASNCFAIRHFENKFAVETLICGFVEWLQQAVYR	inactive
EASNCFAIRHFENKFAVETLICGFVTVVARPRMP	5.26
EASNCFAIRHFENKFAVETLICGFW	5.79
EASNCFAIRHFENKFAVETLICGFWSPCVRIPGR	2.69
EASNCFAIRHFENKFAVETLICGFYCVYSSLIQQ	inactive
EASNCFAIRHFENKFAVETLICGFYSDRDVLLLW	inactive
EASNCFAIRHFENKFAVETLICGGAMRKAVSPWR	inactive
EASNCFAIRHFENKFAVETLICGGCGAILGLVRR	4.91
EASNCFAIRHFENKFAVETLICGGCHVDSRDLWQ	6.78
EASNCFAIRHFENKFAVETLICGGCRRGCRVGAR	inactive
EASNCFAIRHFENKFAVETLICGGDFVRAKRSGP	0.321
EASNCFAIRHFENKFAVETLICGGEEGTPPPTVP	inactive
EASNCFAIRHFENKFAVETLICGGFCSILLVVS	inactive
EASNCFAIRHFENKFAVETLICGGGSWDRHPRTS	inactive
EASNCFAIRHFENKFAVETLICGGGVVPLEWRSG	inactive
EASNCFAIRHFENKFAVETLICGGLGNRRCGVCS	inactive
EASNCFAIRHFENKFAVETLICGGLR	inactive
EASNCFAIRHFENKFAVETLICGGMEKQGEEAWR	inactive
EASNCFAIRHFENKFAVETLICGGNDWYHRGFAC	inactive
